# Laboratory results reported in PubChem BioAssay AID504832 (National Center for Advancing Translational Sciences (NCATS), 2011).
# Values joined by “and” are separate entries in the source; they are usually repeats but may differ in a detail not shown here. Equal entries are not always repeated. Hit rate of the full screen: of about 310,000 compounds, about 18,000 (5.8%) were called active. This list was built around the results that the source calls inconclusive (neither active nor inactive); the mix of calls is not that of the screen. The call rests on the fitted dose curve; in most records, active means well fitted inhibition curve with a large enough effect; inconclusive means small, poorly fitted or top-dose-only effect, or another doubt; inactive means no such curve, though single readings can be large or run the other way. Potencies of inconclusive entries are doubtful fits and often do not repeat.
# Test: Primary qHTS for delayed death inhibitors of the malarial parasite plastid, 48 hour incubation
# Conditions: P. falciparum luciferase growth in erythrocytes; series mostly up to 28.7 µM
# Procedure, shortened: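 Cell-based growth assay: transgenic P. falciparum expressing firefly luciferase, cultured in red cells within RPMI 1640 containing 0.5% w/v Albumax, 24 mM bicarbonate and gentamycin. A drop in luciferase activity indicates inhibition.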
# Potency means the concentration at half of the fitted maximal effect; tags describe the fitted curve by direction and shape.
row,Compound,Potency
1,Cc1cc(/C=C(\C#N)C(=O)NCC2CCCO2)c(C)n1-c1ccc(Cl)cc1 (centres undefined),active: 10.4 µM
2,O=C(COc1ccc(S(=O)(=O)N2CCCC2)cc1)Nc1ccc2c(c1)OCCO2,"inconclusive: 5.86 µM [inhibitor, partial curve, poor fit]"
3,Cc1ccc(NC(=O)CSc2ncnc3ccccc23)cc1S(=O)(=O)N1CCCCC1,"inconclusive: 14.7 µM [inhibitor, single point]"
4,Cc1ccc(O)c(NC(=O)CSc2n[nH]c(C)c2[N+](=O)[O-])c1,"inconclusive: 11.7 µM [inhibitor, single point]"
5,COc1ccc(C(=O)Cn2nc(CNc3ccc(Br)cc3)[n+]3c2CCCCC3)cc1,active: 1.04 µM
6,COc1ccc(Nc2ncccc2C(=O)Nc2ccccc2)cc1,inactive
7,Cc1nc2ccccn2c(=O)c1CCN1CCC(C(=O)c2ccc(F)cc2)CC1,"inconclusive: 19 µM [inhibitor, single point] and inconclusive: 18.5 µM [inhibitor, single point]"
8,COc1ccc(CC(=O)N(Cc2ccccc2)c2cccc(C)c2)cc1OC,"inconclusive: 9.28 µM [inhibitor, single point]"
9,O=C(c1cccc([N+](=O)[O-])c1)N1CCN(c2ccc(N3CCOCC3)nn2)CC1,"inconclusive: 13.1 µM [inhibitor, single point]"
10,Cc1cccnc1NC(=O)c1cccc(S(=O)(=O)N2CCCc3ccccc32)c1,"inconclusive: 5.22 µM [inhibitor, partial curve, poor fit]"
11,COc1cc2c(cc1OC)C(C)N(C(=S)NC(=O)c1ccccc1)CC2 (centres undefined),"inconclusive: 11.7 µM [inhibitor, single point]"
12,O=C(Nc1ccc([N+](=O)[O-])cc1)c1nc[nH]c1C(=O)NC1CCCCC1,"inconclusive: 3.29 µM [inhibitor, partial curve, poor fit]"
13,CCC(=O)c1ccc2c(c1)N(CCCN(C)C)c1ccccc1S2,"inconclusive: 15.1 µM [inhibitor, single point]"
14,c1ccc(CNc2nc(-c3ccccc3)nc3ccccc23)cc1,"inconclusive: 0.415 µM [inhibitor, full curve, poor fit]"
15,O=C(NC1CCCCCC1)c1ccc(Cl)c(S(=O)(=O)N2CCOCC2)c1,"inconclusive: 7.38 µM [inhibitor, partial curve]"
16,CCc1cc2c(=O)n(CC(=O)NCCc3ccc(OC)c(OC)c3)cnc2s1,inactive
17,O=C(N/C(=C\c1ccc(F)cc1)C(=O)N1CCCCCC1)c1ccccc1,"inconclusive: 10.4 µM [inhibitor, partial curve, poor fit]"
18,Cc1ccccc1C(=O)c1cccn1CC(=O)NCC1CCCO1 (centres undefined),inactive
19,Cc1ccc(C(=O)Nc2nc(C(C)(C)C)cs2)s1,inactive
20,CCOC(=O)c1nnn(-c2nonc2N)c1CS(=O)(=O)c1ccccc1,inactive
21,Cc1ccccc1CNC(=O)C(=O)NCCC1CCCCN1S(=O)(=O)c1cccs1 (centres undefined),"inconclusive: 18.5 µM [inhibitor, single point]"
22,COCCCNC(=S)NNC(=O)c1ccccn1,"inconclusive: 11.7 µM [inhibitor, single point]"
23,NC(=O)C1=C[C@H](c2ccccc2)C[C@H](OCc2ccc(CO)cc2)O1,inactive

row,Compound,Potency
1,Clc1c(-c2nnc3n2CCC3)sc2ccccc12,"inconclusive: 5.86 µM [inhibitor, partial curve]"
2,COc1ccc(CN2CCCC(C(=O)Nc3cccc(-n4cccn4)c3)C2)c(F)c1 (centres undefined),"inconclusive: 9.28 µM [inhibitor, partial curve]"
3,O=[N+]([O-])c1ccc(-c2ccc(/C=N/Nc3nc(NCc4ccccc4)nc(N4CCOCC4)n3)o2)cc1,active: 1.47 µM
4,CCn1c(COc2ccccc2)nnc1SCC(=O)Nc1cc(OC)ccc1OC,"inconclusive: 1.85 µM [inhibitor, full curve, poor fit]"
5,CC1CCCN(C(=O)c2cc3c(=O)n4ccccc4nc3s2)C1 (centres undefined),inactive
6,CCN(CC)CCNC(=O)c1ccc(N2CCCCC2)c(NS(=O)(=O)c2ccc(C)cc2)c1,"inconclusive: 5.86 µM [inhibitor, partial curve]"
7,COC(=O)c1ccc(NC(=O)COc2ccc(C3C(C#N)=C(N)Oc4c3ccc3ccccc43)cc2OC)cc1 (centres undefined),"inconclusive: 1.85 µM [inhibitor, full curve, poor fit]"
8,O=C(Nc1nc2c(s1)CCCC2)c1ccc2ncsc2c1,inactive
9,O=C(CSc1nc2ccccc2c(=O)n1CCCN1CCOCC1)c1c[nH]c2ccccc12,"inconclusive: 11.7 µM [inhibitor, partial curve]"
10,COc1ccc(NC(=O)CN2c3cccc4cccc(c34)S2(=O)=O)cc1,"inconclusive: 20.8 µM [inhibitor, single point]"
11,Cc1nn2c3c(cnc2c1-c1ccccc1)C(=O)CC(c1ccco1)C3 (centres undefined),active: 1.47 µM
12,Cc1oc2c(c1C(=O)N1CCOCC1)C(=O)c1ccccc1C2=O,active: 4.15 µM
13,C=CCn1c(SCC(=O)NCC2CCCO2)nnc1-c1ccccc1 (centres undefined),inactive
14,COCCn1cnc2c1c(=O)n(Cc1ccccc1C#N)c(=O)n2Cc1ccccc1,"inconclusive: 1.31 µM [inhibitor, partial curve]"
15,CCNc1nc(NCC)n2c(SCC(=O)Nc3ccc(CC)cc3)nnc2n1,active: 10.4 µM
16,Cc1c(N/N=C(\C#N)C(=O)c2ccccc2)c(=O)n(-c2ccccc2)n1C,active: 1.65 µM
17,CCCNS(=O)(=O)c1ccc(CCC(=O)Nc2ccc3c(c2)OCCO3)cc1,"inconclusive: 18.5 µM [inhibitor, single point]"
18,N#Cc1c(-c2ccccc2Cl)noc1/C=C/Nc1ccc(C(=O)O)cc1,inactive
19,CCCCC(=O)Nc1ccc(NC(=S)NC(=O)c2cccs2)cc1OC,inactive
20,CCc1ccc(NC2=CC(=O)C(=O)c3ccccc32)cc1,active: 0.0828 µM
21,O=C(C1=C(O)C(=O)N(CCc2ccccc2)C1c1cccs1)c1ccco1 (centres undefined),inactive
22,NCCC(=O)N1c2ccccc2Sc2ccc(Cl)cc21,"inconclusive: 18.5 µM [inhibitor, single point]"
23,COc1cc(C=C2C(=O)c3ccccc3C2=O)cc(OC)c1,"inconclusive: 18.5 µM [inhibitor, single point]"

row,Compound,Potency
1,Cc1ccc(CNC(=O)c2nnn(-c3cccc(C)c3)c2N)cc1,inactive
2,Cc1cc(C)n(Cc2ccccc2Cl)n1,"inconclusive: 4.15 µM [inhibitor, partial curve, poor fit]"
3,CCC[C@@H](CN[C@@H](CNC)[C@H](C)CC)NCC1CCC(C(C)(C)C)CC1 (some centres undefined),"inconclusive: 9.28 µM [inhibitor, partial curve, poor fit]"
4,C=C1CCN(c2ccc(C(=O)NCc3ccc(C)cc3)cc2[N+](=O)[O-])CC1,"inconclusive: 9.28 µM [inhibitor, partial curve]"
5,CC[N+](CC)(CC#Cc1ccccc1)CC#Cc1ccccc1,active: 1.47 µM
6,CCN(Cc1ccccc1)C(=O)CCS(=O)(=O)c1cc2c(cc1Cl)NC(=O)CO2,inactive
7,S=C(NCCc1ccccc1)NCCc1ccccc1,inactive
8,O=C(CN(Cc1ccccc1)C(=O)CCl)c1cccc(Br)c1,"inconclusive: 10.4 µM [inhibitor, partial curve, poor fit]"
9,CCN(CC(=O)Nc1c(F)cccc1F)C(=O)/C=C/c1c(C)nn(-c2ccc(F)cc2)c1C,"inconclusive: 13.1 µM [inhibitor, single point]"
10,CCCCNC(=O)NNc1nc(Cl)cc(C)c1C#N,"inconclusive: 1.85 µM [inhibitor, full curve, poor fit]"
11,CCN(CC)S(=O)(=O)c1ccc(OC)c(NC(=O)c2cccs2)c1,"inconclusive: 10.4 µM [inhibitor, partial curve]"
12,CCOC(=O)C1(CCOc2ccccc2)CCN(Cc2cc(OC)c3c(c2)OCO3)CC1,"inconclusive: 9.28 µM [inhibitor, partial curve]"
13,CCCCn1c(N)c(N(CCC(C)C)C(=O)CCN2C(=O)C3CC=CCC3C2=O)c(=O)[nH]c1=O (centres undefined),inactive
14,O=C(NCC(=O)N1CCN(c2ncc(C(F)(F)F)cc2Cl)CC1)c1ccc(Br)o1,inactive
15,CCCCSc1nnc([C@@H](NC(=O)OC(C)(C)C)C(C)C)o1,inactive
16,O=C(Nc1cnn(Cc2ccc(Cl)cc2Cl)c1)c1cc(-c2cccs2)on1,"inconclusive: 11.7 µM [inhibitor, single point]"
17,COc1ccc(N(C(=O)Cn2nnc3ccccc32)C(C(=O)NC(C)(C)C)c2ccc(OC)c(O)c2)cc1 (centres undefined),"inconclusive: 9.28 µM [inhibitor, partial curve, poor fit]"
18,CC1(C)Cc2nc3sc4c(OCc5ccccc5)ncnc4c3cc2CO1,"inconclusive: 18.5 µM [inhibitor, single point]"
19,c1ccc(C(c2nnnn2Cc2ccco2)N2CCN(c3nc4ccccc4s3)CC2)cc1 (centres undefined),"inconclusive: 18.5 µM [inhibitor, single point]"
20,Cc1cccc(C(C(=O)NC2CCCC2)N(C(=O)c2csnn2)C2CCCC2)c1 (centres undefined),"inconclusive: 7.38 µM [inhibitor, single point]"
21,Cc1[nH]c(C)c(S(=O)(=O)N2CCN(c3cccc(Cl)c3)CC2)c1C(=O)N1CCCCC1,inactive
22,N#C/C(=C1/SCC(c2ccccc2Cl)S1)n1ccnc1 (centres undefined),"inconclusive: 13.5 µM [inhibitor, single point]"
23,CCN(CC)c1ccc(NC(=O)c2cnccn2)cc1S(=O)(=O)Nc1ccc(OC)cc1,"inconclusive: 18.5 µM [inhibitor, single point]"
